Experimental data from patent publication US20240181094A1, “[161Tb]-BASED RADIOPEPTIDES” (priority 2021, published 2024).

Experiments:
AR42 J tumor cells [1] = test: Cell viability assay (MTT); type: cell-based, rat; conditions: 2 h exposure, 6 d growth
AR42 J tumor cells [2] = test: Cell uptake and internalization, 161Tb- vs 177Lu-labeled peptides; type: cell-based, rat; conditions: 1 μM DOTANOC
Procedure: The well-plates were incubated under standard cell culture conditions for 0.5 h, 2 h or 4 h. […] The total uptake and the internalized fractions were determined using a γ-counter (Perkin Elmer, Wallac Wizard 1480). […] Experiments were performed twice or three times in triplicate. Statistical analysis was performed using a two-way ANOVA with Tukey's multiple comparisons post-test.

AR42 J tumor cells [3] = conditions: n=1
AR42 J tumor cells [4] = test: Nuclear localization of the radiopeptides; type: cell-based, rat; conditions: 2.5 MBq, 125 pmol, 2 h
Procedure: The next day, the medium was removed, the tumor cells were washed with PBS (pH 7.4) and 19.5 ml of assay medium was added. The radiopeptides were added in a volume of 0.5 ml (2.5 MBq, 125 pmol) and the tumor cells incubated for 2 h at 37° C. Afterwards, the cells were washed several times with PBS (pH 7.4) to completely remove excess of radiopeptides. Subsequently, the cell nuclei and cytoplasm/membrane fractions were harvested according to the manufacturer's protocol using the Nucli EZ Prep Nuclei Isolation Kit (Sigma Aldrich, USA). Ice-cold Nuclei EZ lysis buffer (4 mL) were added to each Petri dish to lyse the tumor cells followed by transfer of the cell suspension into Eppendorf tube for centrifugation for 5 min at 500 rcf at 4° C. The supernatant containing cytoplasm/membrane fractions was transferred to a tube for counting activity in a γ-counter. The pellet was resuspended in 4 ml ice-cold Nuclei EZ lysis buffer followed by additional centrifugation for 5 min at 500 rcf at 4° C. […] The measured activity of nuclei and cytoplasm/cell membrane fractions was defined as 100% of the cellular uptake. Nuclear localization was expressed as percentage of total cellular uptake. The collected fractions were stained with 0.4% trypan blue solution and analyzed using a microscope in order to confirm that the nuclei were properly separated from other cell fragments.

Row | Structure (SMILES) | EC50 (95% Confidence Interval) (AR42 J tumor cells [1]) [MBq/mL] | cell uptake with excess DOTANOC (AR42 J tumor cells [2]) | activity concentration for a similar effect (as 0.50 MBq/mL [161Tb]Tb-DOTATOC) (AR42 J tumor cells [3]) [MBq/mL] | nuclear uptake (AR42 J tumor cells [4])
1 | C[C@@H](O)[C@@H]1NC(=O)[C@H](CCCCN)NC(=O)[C@@H](Cc2c[nH]c3ccccc23)NC(=O)[C@H](Cc2ccc(O)cc2)NC(=O)[C@@H](NC(=O)[C@@H](Cc2ccccc2)NC(=O)CN2CCN(CC(=O)O)CCN(CC(=O)O)CCN(CC(=O)O)CC2)CSSC[C@@H](C(=O)N[C@H](CO)[C@@H](C)O)NC1=O [[^161Tb]Tb-DOTATOC] [metal not drawn] | 1.6 | prevented the cell uptake |  | 
2 | C[C@@H](O)[C@@H]1NC(=O)[C@H](CCCCN)NC(=O)[C@@H](Cc2c[nH]c3ccccc23)NC(=O)[C@H](Cc2ccc(O)cc2)NC(=O)[C@@H](NC(=O)[C@@H](Cc2ccccc2)NC(=O)CN2CCN(CC(=O)O)CCN(CC(=O)O)CCN(CC(=O)O)CC2)CSSC[C@@H](C(=O)N[C@H](CO)[C@@H](C)O)NC1=O [[^177Lu]Lu-DOTATOC] [metal not drawn] | 8.2 | prevented the cell uptake | 5 | < 1 % of total cellular uptake
